Out of some 310,000 compounds screened, about 2,200 (0.71%) showed an effect of 50% or more. The effect is printed as a negative number. This is one part of the list.
These molecules were tested against human ether-à-go-go-related gene (hERG) potassium channel (human, UniProt Q12809) (assay: primary screen, population patch clamp on CHO cells stably expressing hERG).
Chain of human ether-à-go-go-related gene (hERG) potassium channel (Q12809 whole entry, looked up): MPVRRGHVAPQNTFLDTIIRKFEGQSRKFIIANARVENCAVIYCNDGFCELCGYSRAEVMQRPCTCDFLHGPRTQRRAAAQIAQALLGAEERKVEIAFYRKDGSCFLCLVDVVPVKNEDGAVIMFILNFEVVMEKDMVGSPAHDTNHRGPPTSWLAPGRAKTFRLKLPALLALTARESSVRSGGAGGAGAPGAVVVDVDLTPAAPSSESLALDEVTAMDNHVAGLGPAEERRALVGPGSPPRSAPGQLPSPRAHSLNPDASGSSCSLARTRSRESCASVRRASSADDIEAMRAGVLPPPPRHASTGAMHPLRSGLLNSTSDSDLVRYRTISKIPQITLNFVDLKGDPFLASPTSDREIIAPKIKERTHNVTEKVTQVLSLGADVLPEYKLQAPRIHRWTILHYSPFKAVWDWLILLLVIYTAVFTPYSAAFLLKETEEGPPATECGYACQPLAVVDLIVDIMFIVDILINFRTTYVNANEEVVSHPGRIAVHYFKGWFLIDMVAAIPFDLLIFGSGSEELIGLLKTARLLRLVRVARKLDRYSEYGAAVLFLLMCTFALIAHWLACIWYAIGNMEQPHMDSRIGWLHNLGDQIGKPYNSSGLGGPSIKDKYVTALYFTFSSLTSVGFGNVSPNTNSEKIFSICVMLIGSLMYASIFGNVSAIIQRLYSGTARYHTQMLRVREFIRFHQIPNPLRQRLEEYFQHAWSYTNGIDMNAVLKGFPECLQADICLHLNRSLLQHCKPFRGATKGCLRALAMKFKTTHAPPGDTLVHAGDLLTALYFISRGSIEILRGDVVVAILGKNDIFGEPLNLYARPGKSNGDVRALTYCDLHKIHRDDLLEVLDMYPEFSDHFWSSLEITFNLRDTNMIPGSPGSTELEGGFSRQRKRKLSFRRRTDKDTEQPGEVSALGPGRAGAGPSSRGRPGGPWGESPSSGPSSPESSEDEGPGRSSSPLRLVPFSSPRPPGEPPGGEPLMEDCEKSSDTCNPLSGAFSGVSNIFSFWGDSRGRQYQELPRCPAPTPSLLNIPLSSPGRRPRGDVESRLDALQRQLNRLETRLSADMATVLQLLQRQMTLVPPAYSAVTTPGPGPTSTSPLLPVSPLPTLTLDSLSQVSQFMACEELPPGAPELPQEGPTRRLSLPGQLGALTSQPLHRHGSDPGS

Structure (SMILES)	hERG current change (%, negative = inhibition) at 1uM [%]
C#Cc1ccc([C@@H]2C=C(C(=O)OCC=C)O[C@H](OCc3ccc(CO)cc3)C2)cc1	20.2
COc1ccc(NC(=O)c2coc3ccccc23)cc1OC	7.73
CN(c1ccccc1)S(=O)(=O)c1ccc(C(=O)OCC(=O)NCc2ccco2)cc1	7.86
Cc1c(NC(=S)/C=C2\N(C)c3ccccc3C2(C)C)c(=O)n(-c2ccccc2)n1C	-1.57
CCN(Cc1ccccc1)S(=O)(=O)c1c(C)n(C)c(=O)n(C)c1=O	1.45
C=CCN(c1ccc(C(=O)Nc2ccc3c(c2)n(C)c(=O)n3C)cc1)S(C)(=O)=O	17.2
Cc1ccc(S(=O)(=O)N2CCCC2)cc1C(=O)O	20.5
CCCOC(=O)c1ccc(NC(=O)C2C3C=CC(O3)C2C(=O)O)cc1 (stereo not drawn)	14.5
CCn1c(CNc2ccc(C)cc2C)nnc1SCC(=O)N1CCCc2ccccc21	8
Cc1ccc(S(=O)(=O)c2ncccc2N)cc1	9.71
CC(=O)N1CCN(CC(=O)O)CC1	5.59
Cc1cc(C(F)F)n2ncc(C(=O)N3CCC(C(N)=O)CC3)c2n1	13.6
Cc1ccc2c(cnn2C(=O)CCC(=O)NCc2cccc(Br)c2)c1	11.1
Cc1cc(C(=O)CCC(=O)NCc2ccccc2F)c(C)s1	15
COc1cccc(CNC(=O)CSc2nnc3c(n2)[nH]c2ccc(OC)cc23)c1	11.6
COc1ccccc1NC(=O)CSc1nc(O)cc(=O)n1C	15.3
Cc1cc(C)n2nnnc2c1C#N	10.6
CCOC(=O)c1cccc(NC(=O)c2ccco2)c1	7.16
COC(=O)c1cccnc1NC(=S)NC1CCCCC1	7.35
COC(=O)c1sccc1-c1ccc(C(=O)Nc2ccccc2)o1	-9
COc1ccc(C(=O)NC2CCCc3c2cnn3-c2cccc(C)c2C)c(OC)n1 (stereo not drawn)	12.5
COc1ccc(/C(CC2OC(=O)c3ccccc32)=N\NC(N)=O)cc1 (stereo not drawn)	2.7

Structure (SMILES)	hERG current change (%, negative = inhibition) at 1uM [%]
CCOC(=O)N1CCN(S(=O)(=O)N2CCCC(C(=O)NCc3cccc(OC)c3)C2)CC1 (stereo not drawn)	7.2
Cc1ccccc1/C=N/Nc1ccc(Cl)nn1	13.8
O=[N+]([O-])c1ccc(C2[C@H]3C(c4ccccc4)=NC4(CCCCC4)N23)cc1 (stereo partly drawn)	16.7
NS(=O)(=O)c1ccc(CCNC(=S)Nc2ccccc2)cc1	7.72
Fc1ccccc1-c1nnc2c3ccccc3nc(N3CCOCC3)n12	-3.41
CCOC(=O)C(=CNc1cc(C)ccc1[N+](=O)[O-])C(=O)OCC	-7.24
O=C(Cn1c(=O)[nH]c2ccccc2c1=O)Nc1ccc2c(c1)OCO2	9.69
COc1ccc(S(=O)(=O)N(C)CC(=O)N2CCN(c3ccc(F)cc3)CC2)cc1OC	-16.3
CCN(CC)CCN1C(=O)c2oc3ccccc3c(=O)c2C1c1ccccc1 (stereo not drawn)	2.78
COc1ccc(Nc2nc3cc(C)ccc3cc2C#N)cc1	-7.91
COc1ccccc1OCCC(=O)OCC(=O)NCc1ccccc1	9.77
CCOc1cc(C=O)cc(Br)c1OCC(N)=O	11.6
O=C(c1ccco1)N1CCN(CC(O)COc2ccc(Br)cc2)CC1 (stereo not drawn)	-42.7
CCOc1ccc(-c2nc[nH]c2[N+](=O)[O-])cc1	21.9
CCCCc1nc(Cl)c(CO)n1Cc1ccc(-c2ccccc2-c2nn[n-]n2)cc1.[K+]	6.14
CCOCCCNc1nc2c(C)cccn2c(=O)c1/C=C1\SC(=S)N(CC(C)C)C1=O	17.6
CCOc1ccc(CCNC(=O)c2ccc3nc(CC)c(CC)nc3c2)cc1	10.9
CCOC(=O)CSc1nnc(Cn2nnc(-c3ccccc3)n2)n1CC	-2.87
CCOC(=O)c1c(NC(=O)CSc2nc3ccccc3o2)sc(C)c1C	17.6
C=CCOc1cccc(C(=O)N2CCC(CCC(=O)NC3CC3)CC2)c1	12.6
CC(C)c1ccc(CNC(=O)C(=O)Nc2nccs2)cc1	19.3
Cc1ccc(S(=O)(=O)CCc2nc3ccccc3[nH]2)cc1C	6.31

Structure (SMILES)	hERG current change (%, negative = inhibition) at 1uM [%]
COc1ccccc1CNC(=O)COC(=O)[C@H](Cc1c[nH]c2ccccc12)NC(=O)c1cccs1	7.77
COc1ccc(NC(=O)CSc2nc3ccc(OC)cc3[nH]2)cc1	1.09
COc1ccccc1-c1sc2ccccc2c1-c1ccc2c(c1)OCCO2	7.93
CCOC(=O)C(CCOc1cccc(CC)c1)C(=O)OCC	13.6
CCOC(=O)C1(CCCc2ccccc2)CCN(C(=O)Cn2nc(C)nc2C)CC1	-3.12
CCCc1nc2ccc(NC(C)=O)cc2c(=O)n1Cc1ccccc1Cl	-2.32
COc1ccc(CNc2ccc(S(=O)(=O)N3CCN(C)CC3)cn2)cc1OC	7.33
Cn1cc(SCC(=O)N2CCCc3ccccc32)c2ccccc21	9.83
CC1(C(=O)NCc2ccccn2)C=CCN1C(=O)c1ccccc1 (stereo not drawn)	13.3
CCN1C(=O)c2ccccc2S(=O)c2ccc(C(=O)N3CCN(C(=O)c4ccco4)CC3)cc21 (stereo not drawn)	1.12
O=C(Oc1ccc(-c2nccc(-c3ccccn3)n2)cc1)c1cccc(C(F)(F)F)c1	5.53
Cc1cccc(-c2nc(CSCC(=O)N3CCN(Cc4ccc5c(c4)OCO5)CC3)c(C)o2)c1	15
Cc1c(NC(=O)c2ccc(NC(=O)C3CC3)cc2)cccc1C(=O)O	17.9
O=c1[nH]c(=O)n(CC2CCCO2)c(O)c1/C=C1\C=Nc2ccccc21 (stereo not drawn) [22416389]	7.72
O=C(N/N=C/C(Br)=C/c1ccccc1)C(O)c1ccccc1 (stereo not drawn)	12.8
CCN1CCN(CCCNC(=O)c2ccc3c(=O)n(CCc4ccccc4)c(=O)[nH]c3c2)CC1	9.9
Cc1cccc(C)c1NC(=O)CC(NCCc1ccccc1)C(=O)O (stereo not drawn)	2.63
COCCCNC(=O)COc1ccc(Br)cc1Cl	9.49
CCOc1ccc(NC(=O)CCN2C(=O)C3CCCCC3C2=O)cc1OCC (stereo not drawn)	13.4
COc1cccc2cc(C(=O)NCCc3ccccc3)c(=O)oc12	21.2
O=C(CN1C(=O)C(c2ccc(F)cc2)=NC12CCCC2)Nc1ccc(F)cc1	-4.81
CCN1C(=NCCc2c[nH]c3ccccc23)N[C@@H](c2ccccc2)[C@H](C(=O)OC)[C@H]1C	8.43

Structure (SMILES)	hERG current change (%, negative = inhibition) at 1uM [%]
COc1cccc(C2c3c(oc4ccc(F)cc4c3=O)C(=O)N2CCCN2CCOCC2)c1 (stereo not drawn)	-1.49
COc1ccc(NC(=O)CCc2nc(-c3ccc(C)cc3)no2)c(OC)c1	7.12
CCC1(C)Cc2c(sc3nnn(CC(=O)Nc4ccccc4C)c(=O)c23)CO1 (stereo not drawn)	2.32
CCOc1ccccc1NC(=O)C1C2CCC3C(CCC21)C3(Cl)Cl (stereo not drawn)	11.8
CC(=O)NC12CC3CC(C1)CC(C(=O)N1CCN(S(=O)(=O)c4cccc(F)c4)CC1)(C3)C2	0.29
COc1ccc(C(=O)N2CCNC(=O)C2CC(=O)Nc2cccc(Cl)c2Cl)cc1 (stereo not drawn)	1.63
O=C(CN1C(=O)NC2(CCCC2)C1=O)Nc1ccccc1N1CCCC1	10.9
COCCCn1c(Cc2csc(Nc3ccc(F)cc3)n2)nnc1SCC(N)=O	-1.42
COc1ccccc1N1C(=O)CC(Sc2nc(C)cc(C)n2)C1=O (stereo not drawn)	5.23
COCC(=O)Nc1nc(-c2ccc(C)cc2)c(C)s1	13.6
Nc1nc(SCc2ccccc2)[nH]c(=O)c1-c1ccccc1	6.71
O=[N+]([O-])c1cccc(-c2ccc(C(=S)N3CCOCC3)o2)c1	15.4
COc1ccc(-c2cc3ccccc3n2CC(O)Cn2nc(C)cc2C)cc1 (stereo not drawn)	9.43
COc1ccc(S(=O)(=O)N(C(C)=O)c2ccc(OC(C)=O)c3ccccc23)cc1[N+](=O)[O-]	6.12
Cc1noc(C)c1COc1ccc(C(=O)N(C)CCOc2ccccc2)cc1	8.13
O=C(COc1ccc([N+](=O)[O-])cc1)Nc1ccccc1N1CCCC1	-4.71
CCCOc1ccc(OCCn2nc(C(=O)O)c3ccccc3c2=O)cc1	3.06
COc1cccc(C2C(C(=O)c3ccco3)=C(O)C(=O)N2CCN(C)C)c1OC (stereo not drawn)	11.1
Cc1sc2ncnc(N3CCC(C(=O)NNC(=O)c4ccccc4Cl)CC3)c2c1C	2.16
Cc1ccc(NC(=O)CSc2ccc3c(c2)OCCO3)nc1	13
COc1ccc(/C=N/NC(=O)c2ccc(NC(C)=O)cc2)cc1COc1ccc(F)cc1F	14.2

From publication PMC4336329 (PLoS ONE, 2015)
